Data taken from the supplement of paper PMC12217912.
The other results are listed elsewhere or left out. The full chains were built here from the parent and the listed change. Inactive controls read about 0.05.

B1: TEV protease; numbered along this chain (parent)
chain: MGESLFKGPRDYNPISSSICHLTNESDGHTTSLYGIGFGPFIITNKHLFRRNNGTLVVQSLHGVFKVKDTTTLQQHLVDGRDMIIIRMPKDFPPFPQKLKFREPQREERICLVTTNFQTKSMSSMVSDTSCTFPSGDGIFWKHWIQTKDGQCGSPLVSTRDGFIVGIHSASNFTNTNNYFTSVPKNFMELLTNQEAQQWVSGWRLNADSVLWGGHKVFMVKPEEPFQPVKEATQL

Variants of: B1
Test: raw area under fraction-flipped curve 0-4 h after induction (AUC4h, not background-subtracted), DNA-recorder readout of cleavage of the substrate (dimensionless); higher = more cleavage of the substrate by the protease variant
Conditions: temperature: 34 °C; time window: 0-4 h after rhamnose induction
Protocol: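 In vivo DNA recorder in E. coli TOP10(DE3) ΔrhaA at 34 °C. Each TEVp single-site mutant (parent TEVp 0) is paired with a single-site variant of the 7-mer TEVs (canonical ENLYFQ|S). The substrate sits between flexible linkers in a Bxb1-sfGFP-TEVs-SsrA fusion, so cleavage stabilises Bxb1 and speeds flipping of a recombination array, read by NGS. The value is the raw area under the fraction-flipped curve over 0-4 h after rhamnose induction (AUC4h), with ≥20 reads per time point. It is not background-subtracted; inactive controls average about 0.047.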
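Note: Bxb1 expression induced with 0.2% (w/v) L-rhamnose at OD600 near 0.5, cultures sampled hourly, flipped fraction per protease–substrate barcode pair counted by paired-end Illumina sequencing.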

Row | Variant | area with substrate ENLAFQS | area with substrate ENLDFQS | area with substrate ENLHFQS | area with substrate ENLKFQS | area with substrate ENLLFQS | area with substrate ENLMFQS | area with substrate ENLPFQS | area with substrate ENLRFQS | area with substrate ENLSFQS | area with substrate ENLWFQS | area with substrate ENLEFQS | area with substrate ENLFFQS | area with substrate ENLIFQS | area with substrate ENLTFQS | area with substrate ENLGFQS | area with substrate ENLNFQS | area with substrate ENLQFQS | area with substrate ENLVFQS | area with substrate ENLCFQS
1 | MGESLFKGPRDYNPISSSICHLTNESDGHTTSLYGIGFGPFIITNKHLFRRNNGTLVVQSLHGVFKVKDTTTLQQHLVDGRDMIIIRMPKDFPPFPQKLKFREPQREERICLVTTNFQTKSMSSMVSDTSCTFPSGDGIFWKHWIQTKDGQCGSPLVSTRDGFIVGIHSASNFTNTNNYFTSVPKNFMFLLTNQEAQQWVSGWRLNADSVLWGGHKVFMVKPEEPFQPVKEATQL [E189F] | 0.062 | 0.0559 | 0.0668 | 0.073 | 0.0682 | 0.0566 | 0.0752 | 0.0765 | 0.0554 | 0.0545 | – | – | – | – | – | – | – | – | –
2 | MGESLFKGPRDYNPISSSICHLTNESDGHTTSLYGIGFGPFIITNKHLFRRNNGTLVVQSLHGVFKVKDTTTLQQHLVDGRDMIIIRMPKDFPPFPQKLKFREPQREERICLVTTNFQTKSMSSMVSDTSCTFPSGDGIFWKHWIQTKDGQCGSPLVSTRDGFIVGIHSASNFTNTNNYFTSVPKNFMELLTNQEAQMWVSGWRLNADSVLWGGHKVFMVKPEEPFQPVKEATQL [Q198M] | 0.0607 | 0.0533 | 0.0681 | 0.0609 | 0.0363 | 0.0595 | 0.0696 | 0.0685 | 0.0709 | 0.0824 | 0.0842 | 0.0816 | 0.0864 | 0.0802 | – | – | – | – | –
3 | MGESLFKGPRDYNPISSSICHLTNESDGHTTSLYGIGFGPFIITNKHLFRRNNGTLVVQSLHGVFKVKDTTTLQQHLVDGRDMIIIRMPKDFPPFPQKLKFREPQREERICLVTTNFQTKSMSSMVSDTSCTFPSGDGIFWKHWIQTKDGQCGSPLVSTRDGFIVGIHSASNFTNTNNYFTSVPKNFMELLTNQEAQHWVSGWRLNADSVLWGGHKVFMVKPEEPFQPVKEATQL [Q198H] | 0.0734 | 0.0559 | – | – | 0.073 | – | – | – | – | – | 0.0575 | – | – | 0.0789 | 0.0787 | 0.0698 | – | – | –
4 | MGESLFKGPRDYNPISSSICHLTNESDGHTTSLYGIGFGPFIITNKHLFRRNNGTLVVQSLHGVFKVKDTTTLQQHLVDGRDMIIIRMPKDFPPFPQKLKFREPQREERICLVTTNFQTKSMSSMVSDTSCTFPSGDGIFWKHWIQTKDGQCGSPLVSTRDGFIVGIHSASNFTNTNNYFTSVPKNFAELLTNQEAQQWVSGWRLNADSVLWGGHKVFMVKPEEPFQPVKEATQL [M188A] | 0.0751 | – | – | – | – | – | 0.058 | 0.0673 | 0.0467 | 0.0662 | 0.0719 | 0.105 | – | – | – | 0.0647 | 0.0509 | – | –
5 | MGESLFKGPRDYNPISSSICHLTNESDGHTTSLYGIGFGPFIITNKHLFRRNNGTLVVQSLHGVFKVKDTTTLQQHLVDGRDMIIIRMPKDFPPFPQKLKFREPQREERICLVTTNFQTKSMSSMVSDTSCTFPSGDGIFWKHWIQTKDGQCGSPLVSTRDGFIVGIHSASNFTNTNNYFTSVPKNFMELLTNQEAQQWVSGWRLNADSVLRGGHKVFMVKPEEPFQPVKEATQL [W212R] | 0.0474 | 0.0645 | 0.0694 | 0.0639 | 0.0707 | – | 0.0626 | 0.0436 | – | – | 0.0516 | 0.0605 | – | – | – | 0.0636 | – | 0.0679 | –
6 | MGESLFKGPRDYNPISSSICHLTNESDGHTTSLYGIGFGPFIITNKHLFRRNNGTLVVQSLHGVFKVKDTTTLQQHLVDGRDMIIIRMPKDFPPFPQKLKFREPQREERICLVTTNFQTKSMSSMVSDTSCTFPSGDGIFWKHWIQTKDGQCGSPLVSTRDGFIVGIHSASNFTNTNNYFTSVPKNFMELLTNQEAQQWVSGWRLNADSVLLGGHKVFMVKPEEPFQPVKEATQL [W212L] | 0.0735 | 0.0538 | 0.0726 | 0.0741 | – | 0.0464 | 0.0637 | – | – | 0.0709 | 0.0629 | 0.109 | 0.0772 | 0.0654 | 0.112 | 0.0465 | 0.0758 | 0.113 | 0.0831
7 | MGESLFKGPRDYNPISSSICHLTNESDGHTTSLYGIGFGPFIITNKHLFRRNNGTLVVQSLHGVFKVKDTTTLQQHLVDGRDMIIIRMPKDFPPFPQKLKFREPQREERICLVTTNFQTKSMSSMVSDTSCTFPSGDGIFWKHWIQTKDGQCGSPLVSTRDGFIVGIHSASNFTNTNNYFTSVPKNFMELLTNQEAQQWVSGWRLNADSVLCGGHKVFMVKPEEPFQPVKEATQL [W212C] | 0.0688 | 0.06 | – | – | – | – | – | 0.0591 | – | 0.0648 | – | 0.0536 | – | – | – | – | – | 0.0768 | 0.0953
8 | MGESLFKGPRDYNPISSSICHLTNESDGHTTSLYGIGFGPFIITNKHLFRRNNGTLVVQSLHGVFKVKDTTTLQQHLVDGRDMIIIRMPKDFPPFPQKLKFREPQREERICLVTTNFQTKSMSSMVSDTSCTFPSGDGIFWKHWIQTKDGQCGSPLVSTRDGFIVGIHSASNFTNTNNYFTSVPKNFMELLTNQEAQQWVSGWRLNADSVLPGGHKVFMVKPEEPFQPVKEATQL [W212P] | 0.0562 | 0.0825 | – | 0.0744 | – | – | – | 0.0779 | – | 0.0575 | – | 0.0508 | – | – | 0.0679 | – | – | – | 0.0537
9 | MGESLFKGPRDYNPISSSICHLTNESDGHTTSLYGIGFGPFIITNKHLFRRNNGTLVVQSLHGVFKVKDTTTLQQHLVDGRDMIIIRMPKDFPPFPQKLKFREPQREERICLVTTNFQTKSMSSMVSDTSCTFPSGDGIFWKHWIQTKDGQCGSPLVSTRDGFIVGIHSASNFTNTNNYFTSVPKNFMELLTNQEAQQWVSGWRLNAPSVLWGGHKVFMVKPEEPFQPVKEATQL [D208P] | 0.0465 | 0.059 | 0.0642 | 0.066 | – | – | 0.0703 | – | – | 0.0545 | 0.0587 | 0.0554 | 0.075 | – | – | 0.0578 | 0.056 | – | –
